# From PMC4336329 (PLoS ONE, 2015)
# The campaign covered roughly 310,000 compounds. About 2,200 (0.71%) showed an effect of 50% or more. The effect is printed as a negative number. This is one part of the list.
# Target: human ether-à-go-go-related gene (hERG) potassium channel (human, UniProt Q12809)
# Assay: primary screen, population patch clamp on CHO cells stably expressing hERG
# Chain of human ether-à-go-go-related gene (hERG) potassium channel (Q12809 whole entry, looked up): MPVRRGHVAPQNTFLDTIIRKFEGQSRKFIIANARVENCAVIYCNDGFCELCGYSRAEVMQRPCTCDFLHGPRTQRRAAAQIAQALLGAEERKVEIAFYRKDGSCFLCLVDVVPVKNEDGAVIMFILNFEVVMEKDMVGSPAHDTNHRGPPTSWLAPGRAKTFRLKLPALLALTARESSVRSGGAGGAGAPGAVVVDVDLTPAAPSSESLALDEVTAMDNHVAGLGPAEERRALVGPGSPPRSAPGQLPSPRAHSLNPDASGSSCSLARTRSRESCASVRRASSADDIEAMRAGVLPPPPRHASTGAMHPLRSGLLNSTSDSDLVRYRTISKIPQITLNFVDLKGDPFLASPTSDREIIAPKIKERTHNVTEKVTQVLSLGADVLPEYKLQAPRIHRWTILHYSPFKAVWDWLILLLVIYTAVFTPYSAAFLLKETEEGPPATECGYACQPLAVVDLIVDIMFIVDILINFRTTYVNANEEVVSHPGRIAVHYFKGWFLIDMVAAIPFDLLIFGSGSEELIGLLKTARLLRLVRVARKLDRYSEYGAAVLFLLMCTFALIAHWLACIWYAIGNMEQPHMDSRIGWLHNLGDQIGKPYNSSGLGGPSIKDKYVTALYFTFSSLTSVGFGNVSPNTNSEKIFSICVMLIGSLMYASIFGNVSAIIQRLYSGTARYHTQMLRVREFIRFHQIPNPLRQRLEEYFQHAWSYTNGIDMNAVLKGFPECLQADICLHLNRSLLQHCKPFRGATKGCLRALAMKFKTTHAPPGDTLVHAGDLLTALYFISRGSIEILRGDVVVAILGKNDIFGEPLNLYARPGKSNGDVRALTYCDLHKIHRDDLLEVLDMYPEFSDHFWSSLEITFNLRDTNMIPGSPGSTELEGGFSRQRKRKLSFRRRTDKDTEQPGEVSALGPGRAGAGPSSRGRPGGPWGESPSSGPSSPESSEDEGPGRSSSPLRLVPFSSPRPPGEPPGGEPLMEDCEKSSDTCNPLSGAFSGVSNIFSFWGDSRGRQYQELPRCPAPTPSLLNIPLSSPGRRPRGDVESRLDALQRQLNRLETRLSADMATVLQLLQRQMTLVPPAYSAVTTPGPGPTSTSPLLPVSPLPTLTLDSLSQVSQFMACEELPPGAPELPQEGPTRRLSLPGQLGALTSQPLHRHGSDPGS
row,SMILES,"hERG current change (%, negative = inhibition) at 1uM [%]"
1,COc1ccc(N2CCN(C(CNC(=O)C(=O)NCc3cccnc3)c3ccco3)CC2)cc1 (stereo not shown),10.6
2,O=C(COc1ccccc1Cl)N1CCN(c2ccccn2)CC1,10.4
3,CCCOc1c(OC)cc(Cl)cc1C1NC(=O)NC(C)=C1C(=O)NCc1ccccc1 (stereo not shown),0.861
4,Cc1cccc(Cn2c(N3CCN(CCO)CC3)nc3c2c(=O)[nH]c(=O)n3C)c1,7.07
5,CCOC(=O)N1CCC(NC(=O)c2cc(C(=O)NCC(OC)OC)ccc2CO)CC1,10.5
6,Cc1ccc(NC(=O)CN(C)C(=O)CSc2nnc(N)s2)cc1,6.57
7,CC(C)CCNC(=S)Nc1ccc(Br)cc1,-0.33
8,Cc1ccc(OCC(=O)NC2CCCCCC2)cc1C,15.4
9,O=C1c2ccccc2C(=O)N1Cc1nc2ccccc2c(=O)n1-c1cccnc1,2.33
10,CCOC(=O)c1nc2sc3c(c2c(=O)[nH]1)CCCC3,9.77
11,C=CCNC(=S)N/N=C1\CCS(=O)(=O)c2ccccc21,1.73
12,Cc1ccc(Nc2nc(=O)c3cccnc3s2)cc1,2.37
13,Cc1cc(/C=C2\NC(=O)N(Cc3ccc(Cl)cc3)C2=O)c(C)n1C,4.87
14,NC(=O)c1cccc2c3c([nH]c12)CCCC3,5.66
15,COc1ccc(-n2ncc3c(N4CCN(c5cccc(C)c5C)CC4)ncnc32)cc1,15.3
16,CCC1(CC)Cc2ccccc2-c2nc(NN)[nH]c(=O)c21,14
17,C=CCN(Cc1cccc(OC)c1OC)S(=O)(=O)N(C)C,1.71
18,CCN(CC)CCSc1nc(O)c(Cc2ccccc2)c(=O)n1-c1ccccc1.Cl,6.98
19,Cc1ccc(S(=O)(=O)Nc2ccc3c(c2)c2c(n3S(=O)(=O)c3ccc(C)cc3)CCCC2=O)cc1,-2.75
20,COC(=O)c1ccc(Cl)c(-c2ccc(/C=N/NC(=O)Nc3ccccc3)o2)c1,15.1

row,SMILES,"hERG current change (%, negative = inhibition) at 1uM [%]"
1,O=C(Nc1cccc(Cl)c1)c1ccccc1,7.21
2,CS/C(=C(/C#N)S(=O)(=O)c1ccc(Cl)cc1)N1CCOCC1,8.95
3,CCCC(=N)C1=C(O)CC(CC(C)SCC)CC1=O (stereo not shown),-6.51
4,CC(c1ccon1)N(C)Cc1cn[nH]c1-c1ccc(F)cc1F (stereo not shown),5.05
5,O=C(c1cc(S(=O)(=O)N2CCOCC2)ccc1Cl)N1CCOCC1,8.34
6,Cc1nn(C)c(Oc2ccccc2)c1CCNS(=O)(=O)c1ccccc1,8.2
7,COc1ccc(CSc2nc3ccccc3c(=O)[nH]2)cc1F,21.2
8,Cc1ccc(CNC(=O)CN(C)S(=O)(=O)c2cccs2)cc1,10.3
9,CCCOc1ccc(N2C(=O)CC(N(Cc3ccco3)C(=O)CCC(=O)O)C2=O)cc1 (stereo not shown),13.4
10,Cc1nnc(SCC(=O)NCc2ccc3c(c2)OCO3)n1C,15.5
11,Cc1ccc(NC(=O)c2cc(-c3cc(Cl)ccc3O)n[nH]2)cc1C,18.2
12,COCCN(Cc1cc2cc3c(cc2nc1Cl)OCO3)C(=O)c1cccc(C)c1,10.1
13,CCn1c(=O)c(C(=O)Nc2ccc(C)cc2)c(O)c2ccccc21,15.8
14,CCOc1ccc(N(C)C(=O)CCc2nnc3ccc(N4CCCCC4)nn23)cc1,11.8
15,c1ccc2c(c1)-c1cccc3c1c-2cc1ccccc13,9.53
16,Cn1nnnc1SCC(=O)NCc1ccc2c(c1)OCO2,13
17,CCOC(=O)c1nn(-c2ccc([N+](=O)[O-])cc2)cc1O,4.72
18,O=C(Nc1ccccc1F)C1CCN(S(=O)(=O)c2cccc3nonc23)CC1,8.37
19,COC(=O)NC(=S)Nc1ccc(Oc2ccc(Cl)cc2)c(Cl)c1,15.4
20,CCCN(CC(=O)Nc1ccccc1OC)C(=O)CC1CCCC1,11.7

row,SMILES,"hERG current change (%, negative = inhibition) at 1uM [%]"
1,COc1ccc(N2CCN(C(CNC(=O)Oc3ccccc3)c3cccnc3)CC2)cc1 (stereo not shown),3.3
2,COC(=O)c1ccccc1NC(=O)COC(=O)[C@H](C)NC(N)=O,12.1
3,FC(F)(F)C1=CC(c2ccc(Br)cc2)=NCCN1,-3.26
4,Cc1cccc(/C=C2\Sc3ccc(C(=O)N4CCCCC4)cc3N(C)C2=O)c1,16.4
5,Cc1oc(-c2ccccc2Cl)nc1CS(=O)CC(=O)NCCc1ccccc1 (stereo not shown),18.5
6,CN(c1ccc(OCC(=O)OCC(=O)NC2CCCC2)cc1)S(=O)(=O)c1ccc2ccccc2c1,7.57
7,Cc1ccc(NC(=O)C(c2ccccc2)c2ccccc2)c(O)c1,8.61
8,COc1cccc(C(=O)Nc2cccc(OCC(=O)c3ccccc3)c2)c1,15.4
9,COc1ccc(N2CCN(c3ccnc4cc(Cl)ccc34)CC2)cc1,-4.76
10,CC(C)CN(CC(C)C)c1nc(N)c(C#N)c(CC#N)c1C#N,-0.539
11,CCCn1c(C)cc(C(=O)COc2ccc(-c3nnco3)cc2)c1C,-8.86
12,CC1CCN(C(=O)CSc2nc(=O)n3ccccc3n2)CC1,16.4
13,O=C(N/N=C/c1cccc(OC2CSC2)c1)c1ccccc1O,6.98
14,CC(=O)NCC(=O)N(Cc1ccco1)C1(C(=O)NC2CCCCC2)CCCCC1,3.67
15,COc1cc(NC(=O)c2ccno2)cc(C(=O)Nc2cccc(C(F)(F)F)c2)c1,11.9
16,COc1cc([N+](=O)[O-])ccc1NC(=O)NCCCN1CCCC1=O,13.6
17,C=CCNC(=O)C1CC(=O)N(c2ccc(OCC(=O)Nc3ccc(C)cc3)cc2)C1 (stereo not shown),-2.13
18,COc1ccc(CNC(=O)C2CCN(S(=O)(=O)c3ccc4nc5c(c(C(=O)O)c4c3)CC(C)CC5)CC2)cc1 (stereo not shown),17.6
